# Measured values as given in PMC4336329 (PLoS ONE, 2015).
# In all, about 310,000 compounds went through this assay and about 2,200 (0.71%) showed an effect of 50% or more. The effect is printed as a negative number. The list shows a part of the results.
# Target: human ether-à-go-go-related gene (hERG) potassium channel (human, UniProt Q12809)
# Test: primary screen, population patch clamp on CHO cells stably expressing hERG
# Protocol: Briefly, Chinese hamster ovary (CHO) cells stably expressing the hERG channel were dislodged from tissue culture flasks and dispensed into PPC plates. […] During the recording, background leak currents were estimated by a 100 ms step to -80 mV from an initial holding potential of -70 mV and subtracted from the subsequent current measurement. The campaign was conducted in two phases using slight differences in recording protocol. In the first phase, the initial voltage pulse used a 100 ms step to -30 mV from a holding potential of -70 mV, a 2 s conditioning step to +25 mV, and a 2 s test step to -30 mV. During the second phase of the screen, the potential during the conditioning step was raised to +45 mV. In both phases of the campaign, a secondary voltage pulse was applied using the same parameters as the second phase initial pulse. The initial and secondary pulses were applied in the absence of compound, and upon application of 1 μM and 10 μM test concentrations. Small molecule effects on hERG current density were quantified by […].
# Sequence of human ether-à-go-go-related gene (hERG) potassium channel (Q12809 whole entry, looked up): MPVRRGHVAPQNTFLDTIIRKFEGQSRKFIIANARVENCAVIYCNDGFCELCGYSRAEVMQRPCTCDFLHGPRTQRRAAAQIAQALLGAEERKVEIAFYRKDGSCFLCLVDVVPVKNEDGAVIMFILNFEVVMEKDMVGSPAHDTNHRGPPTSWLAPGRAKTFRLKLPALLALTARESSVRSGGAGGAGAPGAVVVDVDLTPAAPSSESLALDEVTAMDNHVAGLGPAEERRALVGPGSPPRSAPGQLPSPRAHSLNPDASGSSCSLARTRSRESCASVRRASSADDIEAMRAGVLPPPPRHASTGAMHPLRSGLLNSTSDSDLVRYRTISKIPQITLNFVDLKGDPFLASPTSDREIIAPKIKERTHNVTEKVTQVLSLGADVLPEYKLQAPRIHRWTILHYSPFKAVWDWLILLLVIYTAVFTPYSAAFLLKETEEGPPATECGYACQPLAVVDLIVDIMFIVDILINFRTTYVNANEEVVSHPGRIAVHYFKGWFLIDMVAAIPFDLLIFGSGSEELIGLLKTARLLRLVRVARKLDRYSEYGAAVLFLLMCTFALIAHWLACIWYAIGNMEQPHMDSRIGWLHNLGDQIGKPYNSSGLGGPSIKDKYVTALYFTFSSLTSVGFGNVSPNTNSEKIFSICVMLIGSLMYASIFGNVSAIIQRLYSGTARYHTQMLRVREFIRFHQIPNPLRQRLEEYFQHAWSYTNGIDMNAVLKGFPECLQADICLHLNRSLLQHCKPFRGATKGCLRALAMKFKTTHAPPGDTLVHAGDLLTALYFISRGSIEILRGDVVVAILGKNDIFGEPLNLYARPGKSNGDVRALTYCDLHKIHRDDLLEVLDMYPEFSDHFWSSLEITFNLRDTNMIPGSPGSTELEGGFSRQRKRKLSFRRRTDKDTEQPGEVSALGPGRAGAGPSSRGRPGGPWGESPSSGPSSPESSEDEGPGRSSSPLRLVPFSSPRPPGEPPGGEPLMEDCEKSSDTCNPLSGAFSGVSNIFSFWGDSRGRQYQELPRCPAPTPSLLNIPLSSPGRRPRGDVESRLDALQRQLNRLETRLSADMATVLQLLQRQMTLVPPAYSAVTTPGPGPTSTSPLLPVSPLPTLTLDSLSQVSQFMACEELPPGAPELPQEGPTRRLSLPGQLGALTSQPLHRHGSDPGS
row,Compound,"hERG current change (%, negative = inhibition) at 1uM"
1,CCOC(=O)C1CCN(C(=O)c2cc(CN3C(=O)c4ccccc4C3=O)ccc2OCC)CC1,-5.68%
2,NC(=O)c1sc2nc3c(cc2c1N)CCCCCC3,12.9%
3,O=C(Nc1nnc(C2CC2)s1)C1Cc2ccccc2CN1S(=O)(=O)c1ccccc1F (stereo not shown),7.7%
4,Br.O=C(O)c1ccc(Nc2nc(-c3ccccc3)cs2)cc1,5.19%
5,NC(=O)C1CCN(C(=O)COc2ccc(Nc3ccccc3)cc2)CC1,8.78%
6,O=C(N/N=C/c1c[nH]c2ccccc12)c1ccc(Cl)cc1,8.54%
7,Cc1ccc(Cn2ncc3c(NCCCN4CCOCC4)ncnc32)cc1,15.3%
8,Cc1cc(C)c[n+](C(C)C(=O)c2ccc(-c3ccccc3)cc2)c1.[Br-] (stereo not shown),11.8%
9,COC(=O)CN1C(=O)N/C(=C/c2ccc(C)o2)C1=O,-0.312%
10,Cc1ccc(-n2[nH]c(C)c(/C=C3/C=Nc4ccccc43)c2=O)cc1C,-0.892%
11,CC(C)(OC(=O)c1ccc(F)cc1)c1cc2ccccc2c(=O)o1,11.6%
12,CCOc1ccccc1N(C(=O)CNS(=O)(=O)c1ccccc1)C(CC)C(=O)NCc1ccco1 (stereo not shown),8.59%
13,Cc1[nH]n(-c2ccccc2)c(=O)c1N=Nc1ccc(Cl)cc1,18.5%
14,CC12COC3(C(=O)NCCc4ccccc4)CC1CCC32C (stereo not shown),2.31%
15,CCOCCCn1c(=S)[nH]c2cc(C(=O)NCc3ccc(F)cc3)ccc2c1=O,10.7%
16,CCOc1ccc(NC(=O)C(Cc2ccccc2)NC(=O)C2CCCCC2)cc1 (stereo not shown),12.5%
17,CCOC(=O)c1cnn(Cc2ccccc2Cl)c1N,5.95%
18,C#CCOCCOCCOCCNc1nc(N2CCN(C(=O)[C@H](CCCCN)n3cc([C@@H](N)C(C)CC)nn3)CC2)nc(N2CCN(C(=O)[C@H](CCCCN)n3cc([C@@H](N)CC(C)C)nn3)CC2)n1.Cl (stereo partly shown),5.01%
19,COc1ccc(NC(=O)C2C3CCC4C(CCC32)C4(Cl)Cl)cc1 (stereo not shown),11.8%
20,O=C(CN1CCN(Cc2ccccc2)CC1)NNC(=O)c1ccc(Cl)cc1,1.67%
21,O=C(Nc1ccc(Cl)cc1Cl)c1cccc(N2C(=O)C=CC2=O)c1,6.23%
22,Cc1onc(-c2ccccc2)c1C(=O)Nc1ccc(S(=O)(=O)NC2=NCCCCC2)cc1,15.6%
23,Cc1ccc2c(CN3CCC(C)CC3)cc(=O)oc2c1C,7.01%
24,O=C(NC(=O)c1ccccc1F)OCc1ccc(Cl)cc1Cl,3.26%
25,O=[N+]([O-])c1cc([N+](=O)[O-])c(Oc2c(Cl)cccc2Cl)cc1NN1CCCCC1,14%
26,CCC(=O)N1C(C(=O)O)CSC1c1ccc(OC)cc1 (stereo not shown),4.09%
27,CCOc1ccc(Cn2c(=O)oc3ccccc32)cc1,16.4%
28,O=C(/C=C/c1ccc([N+](=O)[O-])cc1)NCCSCc1ccco1,-14.9%

row,Compound,"hERG current change (%, negative = inhibition) at 1uM"
1,Cc1ccccc1OCC(=O)NCC(=O)OCc1ccc(Br)cc1,13.1%
2,S=C(c1ccccc1)N1CCN(C(=S)c2ccccc2)CC1,9.72%
3,c1ccc(-c2ccc(C3=Nn4c(nnc4-c4cc(-c5ccccc5)n[nH]4)SC3)cc2)cc1,-2.16%
4,CC(C)(C)C(=O)NC(=S)NNC(=O)c1ccc(-c2ccccc2)cc1,9.14%
5,O=C(Cc1ccc(Cl)c(Cl)c1)Nc1ccccc1N1CCCC1,15.2%
6,O=C(/C=C/c1cccc([N+](=O)[O-])c1)NCCN1C(=O)S/C(=C\c2ccc(F)cc2)C1=O,13.2%
7,O=C(COc1ccc(Cl)cc1)Nc1ccc2oc(-c3ccncc3)nc2c1,10.8%
8,COc1ccc(CC(=O)NCCC(C)C)cc1S(=O)(=O)N1CCOCC1,7.35%
9,CCCNC(=O)c1onc(CSc2cccc(OC)c2)c1C(=O)NCCC,6.5%
10,COc1ccc(S(=O)(=O)NCCSc2ccc(Cl)cc2)cc1OC,1.24%
11,CCN(Cc1ccccc1)C(=O)c1cccnc1,12.6%
12,COc1ccc(NC(=O)CC(C)c2ccccc2)cc1S(=O)(=O)N1CCOCC1 (stereo not shown),9.03%
13,CC(=O)NC1C(=O)N(CCN2CCOCC2)c2ccc(F)cc21.Cl (stereo not shown),11.2%
14,C=CCN(CC=C)S(=O)(=O)c1ccc(NC(=O)COc2ccccc2OC)cc1,-1.1%
15,CC1(c2cccc(Br)c2)NC(=O)NC1=O (stereo not shown),14.3%
16,CCn1ncc(C(=O)Nc2ccc(S(=O)(=O)N3CCCC3)cc2)c1C,10.4%
17,O=C(NNC(=S)NC(=O)c1cccc([N+](=O)[O-])c1)c1ccc(Br)cc1,11.1%
18,O=C(NCCCN1CCOCC1)C(=O)N/N=C/c1ccccc1O,10.6%
19,COc1ccc(CCN(C)CCC(=O)Nc2c(C)cc(C)cc2C)cc1OC,-25.7%
20,CCn1c(N2CCC(Cc3ccccc3)CC2)nc2c1c(=O)[nH]c(=O)n2C,8.52%
21,CCCN(CCC)CCN1C(=O)C2C(C(=O)Nc3cccc(SC)c3)C3C=CC2(O3)C1C(=O)NC1CCCCC1 (stereo not shown),-13.7%
22,CCOC(=O)c1ccc(CN2C(=O)c3ccccc3S2(=O)=O)cc1,10.5%
23,COc1ccc(-n2c(SCC(=O)Nc3ccc(C(=O)O)cc3)nnc2-c2ccccc2)cc1OC,4.91%
24,CN1CCN(S(=O)(=O)c2ccc(Br)s2)CC1,-4.57%
25,COc1ccc2cc(C(=O)N3CCN(C)CC3)[nH]c2c1,9.25%
26,COc1ccc(CNC(C)(C)C)cc1Cl.Cl,-1.46%
27,O=S(=O)(Cc1ccccc1)N1CCCC(c2nc(-c3ccc(F)cc3)no2)C1 (stereo not shown),7.37%
